Reference: article PMC5101352
No constants are given. Whether binding was seen depends on the method and setting. Some binding calls cover weakened binding; strength is not graded here. For part of these data: Where a sequence is shown, tags or fusion partners need not be part of it. One block for each substance: values may come before it.

Sequences of proteins named here, by UniProt entry; tags and fusion partners are left off.
UniProt P0A705: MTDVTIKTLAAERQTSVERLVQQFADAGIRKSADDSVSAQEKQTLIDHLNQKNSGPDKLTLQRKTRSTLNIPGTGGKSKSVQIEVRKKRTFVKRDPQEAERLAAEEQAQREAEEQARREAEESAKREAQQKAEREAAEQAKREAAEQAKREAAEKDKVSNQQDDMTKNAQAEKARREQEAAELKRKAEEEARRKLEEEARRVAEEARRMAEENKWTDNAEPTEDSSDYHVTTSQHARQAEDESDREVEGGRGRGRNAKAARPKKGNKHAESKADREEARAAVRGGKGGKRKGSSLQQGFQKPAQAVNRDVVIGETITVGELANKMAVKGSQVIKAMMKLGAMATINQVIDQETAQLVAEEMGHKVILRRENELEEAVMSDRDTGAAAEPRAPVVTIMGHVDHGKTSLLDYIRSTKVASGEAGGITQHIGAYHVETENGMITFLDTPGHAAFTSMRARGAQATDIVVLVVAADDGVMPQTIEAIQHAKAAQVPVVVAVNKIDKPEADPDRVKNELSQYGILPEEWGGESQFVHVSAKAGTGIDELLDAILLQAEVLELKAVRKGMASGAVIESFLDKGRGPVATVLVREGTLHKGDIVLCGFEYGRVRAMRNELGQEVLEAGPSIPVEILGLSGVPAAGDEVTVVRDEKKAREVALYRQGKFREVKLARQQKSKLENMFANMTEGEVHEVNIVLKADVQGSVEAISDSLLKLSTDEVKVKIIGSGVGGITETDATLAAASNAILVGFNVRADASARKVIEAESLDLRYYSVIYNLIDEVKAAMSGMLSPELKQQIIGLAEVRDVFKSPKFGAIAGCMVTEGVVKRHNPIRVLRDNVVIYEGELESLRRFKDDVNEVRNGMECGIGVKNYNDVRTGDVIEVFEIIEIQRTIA
UniProt P42641: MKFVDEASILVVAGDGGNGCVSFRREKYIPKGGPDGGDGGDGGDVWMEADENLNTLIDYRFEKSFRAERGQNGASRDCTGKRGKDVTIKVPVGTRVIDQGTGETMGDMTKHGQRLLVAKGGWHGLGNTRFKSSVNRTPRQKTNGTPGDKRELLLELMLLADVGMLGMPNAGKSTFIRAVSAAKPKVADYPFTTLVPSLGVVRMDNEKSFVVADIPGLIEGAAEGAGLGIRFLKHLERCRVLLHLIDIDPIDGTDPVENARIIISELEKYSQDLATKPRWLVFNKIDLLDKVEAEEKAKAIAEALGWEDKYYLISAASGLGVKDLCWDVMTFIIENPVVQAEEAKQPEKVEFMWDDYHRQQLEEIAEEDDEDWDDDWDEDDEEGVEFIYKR
UniProt P0A6X3: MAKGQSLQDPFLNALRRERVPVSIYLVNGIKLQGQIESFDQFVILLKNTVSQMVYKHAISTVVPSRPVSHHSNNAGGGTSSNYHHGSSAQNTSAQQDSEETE
UniProt P0AE72: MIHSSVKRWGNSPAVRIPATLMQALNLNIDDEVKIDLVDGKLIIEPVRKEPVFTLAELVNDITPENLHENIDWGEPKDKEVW
UniProt P21513: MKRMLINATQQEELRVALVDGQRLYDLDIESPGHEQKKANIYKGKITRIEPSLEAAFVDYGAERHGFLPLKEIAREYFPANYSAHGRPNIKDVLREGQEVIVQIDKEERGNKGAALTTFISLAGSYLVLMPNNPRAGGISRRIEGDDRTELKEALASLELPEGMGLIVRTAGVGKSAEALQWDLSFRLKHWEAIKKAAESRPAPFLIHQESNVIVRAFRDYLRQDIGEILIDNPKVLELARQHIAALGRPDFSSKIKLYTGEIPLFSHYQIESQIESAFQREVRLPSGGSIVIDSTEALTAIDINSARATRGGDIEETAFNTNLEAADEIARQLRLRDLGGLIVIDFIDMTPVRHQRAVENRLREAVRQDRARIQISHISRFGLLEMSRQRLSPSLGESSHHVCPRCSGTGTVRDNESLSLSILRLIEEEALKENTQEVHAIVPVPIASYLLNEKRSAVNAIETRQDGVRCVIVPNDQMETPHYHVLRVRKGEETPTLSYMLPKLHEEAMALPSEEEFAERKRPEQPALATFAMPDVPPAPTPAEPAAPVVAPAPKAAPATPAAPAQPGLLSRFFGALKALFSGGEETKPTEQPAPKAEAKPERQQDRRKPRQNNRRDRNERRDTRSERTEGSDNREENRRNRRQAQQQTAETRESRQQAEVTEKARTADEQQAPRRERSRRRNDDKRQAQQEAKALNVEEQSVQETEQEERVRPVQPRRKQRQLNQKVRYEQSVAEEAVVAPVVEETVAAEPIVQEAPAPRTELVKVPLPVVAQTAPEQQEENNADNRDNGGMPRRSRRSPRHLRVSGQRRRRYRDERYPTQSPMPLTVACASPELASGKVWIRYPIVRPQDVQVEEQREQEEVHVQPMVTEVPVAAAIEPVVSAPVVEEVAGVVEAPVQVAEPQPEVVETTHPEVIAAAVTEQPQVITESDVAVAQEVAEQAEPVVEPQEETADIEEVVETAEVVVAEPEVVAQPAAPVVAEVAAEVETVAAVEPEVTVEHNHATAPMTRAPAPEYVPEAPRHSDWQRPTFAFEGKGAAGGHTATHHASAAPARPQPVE

Columns and labels:
[1] = target: YbeY (E. coli), bacterial two-hybrid fusion (E. coli) (UniProt P0A898); assay: two-hybrid; bacterial adenylate cyclase two-hybrid (BACTH) in E. coli BTH101; T25 and T18 fusions; spots or streaks on LB agar with X-Gal, IPTG and TPEG, 30°C, colour read after 2 or 3 days
[2] = target: YbeY (E. coli), bacterial two-hybrid fusion (E. coli) (UniProt P0A898); assay: two-hybrid; BACTH liquid culture assay in E. coli BTH101; T25-YbeY and x-T18; beta-galactosidase activity (Beta-Glo, RLU normalised to cell density) over 72 h
[3] = target: YbeY D85R (T25-YbeY mutant) (E. coli) (UniProt P0A898); assay: two-hybrid; bacterial adenylate cyclase two-hybrid (BACTH) in E. coli BTH101; T25 and T18 fusions; spots or streaks on LB agar with X-Gal, IPTG and TPEG, 30°C, colour read after 2 or 3 days
[4] = target: YbeY R59E K61E (T25-YbeY mutant) (E. coli) (UniProt P0A898); assay: as above
[5] = target: YbeY R44D (T25-YbeY mutant) (E. coli) (UniProt P0A898); assay: as above
[6] = target: YbeY D85R T42F (T25-YbeY mutant) (E. coli) (UniProt P0A898); assay: as above
[7] = target: YbeY T42F (T25-YbeY mutant) (E. coli) (UniProt P0A898); assay: as above
[8] = target: YbeY K61E (T25-YbeY mutant) (E. coli) (UniProt P0A898); assay: as above
[9] = target: YbeY H114A H124A (T25-YbeY mutant) (E. coli) (UniProt P0A898); assay: as above
[10] = target: T1, Nucleoside triphosphate pyrophosphohydrolase MazG, bacterial two-hybrid fusion (E. coli) (UniProt P0AEY3); assay: as above
T1 sequence: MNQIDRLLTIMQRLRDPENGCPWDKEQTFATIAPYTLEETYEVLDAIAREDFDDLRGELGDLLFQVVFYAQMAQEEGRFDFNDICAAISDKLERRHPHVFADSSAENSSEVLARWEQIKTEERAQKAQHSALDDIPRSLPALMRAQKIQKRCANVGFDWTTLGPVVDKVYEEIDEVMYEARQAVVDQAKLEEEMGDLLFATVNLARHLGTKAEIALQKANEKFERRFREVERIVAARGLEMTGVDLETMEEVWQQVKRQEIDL

[11] = target: YbeY D85R R44D (T25-YbeY mutant) (E. coli) (UniProt P0A898); assay: as above
[12] = target: YbeY R59E (T25-YbeY mutant) (E. coli) (UniProt P0A898); assay: as above

binding [1]: no binding
Substance: Initiation factor 2 (IF2), bacterial two-hybrid fusion (from UniProt P0A705 1-890)

binding [2]: binds
binding [3]: binds
binding [4]: binds
binding [5]: binds
binding [6]: binds
binding [7]: binds
binding [8]: binds
binding [9]: binds
binding [10]: binds
binding [1]: binds
binding [11]: binds
binding [12]: binds
Substance: GTPase Era, bacterial two-hybrid fusion (from UniProt P06616 1-301)

binding [1]: binds
Substance: Bifunctional (p)ppGpp synthase/hydrolase SpoT, bacterial two-hybrid fusion (from UniProt P0AG24 1-702)

binding [1]: no binding
Substance: GTPase ObgE, bacterial two-hybrid fusion (from UniProt P42641 1-390)

binding [1]: no binding
Substance: RNA chaperone Hfq, bacterial two-hybrid fusion (from UniProt P0A6X3 1-102)

Substance: Antitoxin MazE, bacterial two-hybrid fusion (from UniProt P0AE72 1-82)
binding [1]: no binding

binding [1]: no binding
Substance: RNase E, bacterial two-hybrid fusion (from UniProt P21513 1-1061)
